Measurements as given in article PMC9911399, “Two distinct binding modes provide the RNA-binding protein RbFox with extraordinary sequence specificity”.
Changes are numbered by the printed parent chain; changes in the protein carry UniProt numbers. The list shows a part of the results.

T1: RBFOX1 RRM RbFoxmut (Fox-RRM*) (Homo sapiens, UniProt Q9NWB1 109-208, R118D;E147R;N151S;E152T)
T1 sequence: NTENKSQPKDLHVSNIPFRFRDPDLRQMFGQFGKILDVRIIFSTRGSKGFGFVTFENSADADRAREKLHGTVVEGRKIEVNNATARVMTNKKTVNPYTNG

B1: UUUAAUA (DNA:RNA)
RNA: GGGAGACCGGAAUUCAGAUUGUCCUUUAAUAUUAAAUCCCGUCGUAGCCACCA
DNA 1: CAATCTGAATTCCGGTCTCCC
DNA 2: TGGTGGCTACGACGGGATT
B2: CAGUACC (DNA:RNA)
RNA: B1 RNA with U25C, U26A, U27G, A28U, U30C, A31C
DNA 1: CAATCTGAATTCCGGTCTCCC
DNA 2: TGGTGGCTACGACGGGATT
B3: CGCUUAU (DNA:RNA)
RNA: GGGAGACCGGAAUUCAGAUUGUCCCGCUUAUUUAAAUCCCGUCGUAGCCACCA
DNA 1: CAATCTGAATTCCGGTCTCCC
DNA 2: TGGTGGCTACGACGGGATT
B4: GAAGUAA (DNA:RNA)
RNA: B3 RNA with C25G, G26A, C27A, U28G, U31A
DNA 1: CAATCTGAATTCCGGTCTCCC
DNA 2: TGGTGGCTACGACGGGATT
B5: AGCACCC (DNA:RNA)
RNA: B3 RNA with C25A, U28A, U29C, A30C, U31C
DNA 1: CAATCTGAATTCCGGTCTCCC
DNA 2: TGGTGGCTACGACGGGATT
B6: CCCACCG (DNA:RNA)
RNA: B3 RNA with G26C, U28A, U29C, A30C, U31G
DNA 1: CAATCTGAATTCCGGTCTCCC
DNA 2: TGGTGGCTACGACGGGATT
B7: CGCCAUA (DNA:RNA)
RNA: B3 RNA with U28C, U29A, A30U, U31A
DNA 1: CAATCTGAATTCCGGTCTCCC
DNA 2: TGGTGGCTACGACGGGATT
B8: AUGGUUA (DNA:RNA)
RNA: B1 RNA with U25A, U27G, A28G, A29U
DNA 1: CAATCTGAATTCCGGTCTCCC
DNA 2: TGGTGGCTACGACGGGATT
B9: AGCACUG (DNA:RNA)
RNA: B3 RNA with C25A, U28A, U29C, A30U, U31G
DNA 1: CAATCTGAATTCCGGTCTCCC
DNA 2: TGGTGGCTACGACGGGATT
B10: CUUGGCC (DNA:RNA)
RNA: B1 RNA with U25C, A28G, A29G, U30C, A31C
DNA 1: CAATCTGAATTCCGGTCTCCC
DNA 2: TGGTGGCTACGACGGGATT
B11: UGAUGGA (DNA:RNA)
RNA: B3 RNA with C25U, C27A, U29G, A30G, U31A
DNA 1: CAATCTGAATTCCGGTCTCCC
DNA 2: TGGTGGCTACGACGGGATT
B12: UUUCACC (DNA:RNA)
RNA: B1 RNA with A28C, U30C, A31C
DNA 1: CAATCTGAATTCCGGTCTCCC
DNA 2: TGGTGGCTACGACGGGATT
B13: AAACUUU (DNA:RNA)
RNA: B3 RNA with C25A, G26A, C27A, U28C, A30U
DNA 1: CAATCTGAATTCCGGTCTCCC
DNA 2: TGGTGGCTACGACGGGATT
B14: GCCCGGG (DNA:RNA)
RNA: B3 RNA with C25G, G26C, U28C, U29G, A30G, U31G
DNA 1: CAATCTGAATTCCGGTCTCCC
DNA 2: TGGTGGCTACGACGGGATT
B15: UUUGGAA (DNA:RNA)
RNA: B1 RNA with A28G, A29G, U30A
DNA 1: CAATCTGAATTCCGGTCTCCC
DNA 2: TGGTGGCTACGACGGGATT
B16: AGUCAUA (DNA:RNA)
RNA: B1 RNA with U25A, U26G, A28C
DNA 1: CAATCTGAATTCCGGTCTCCC
DNA 2: TGGTGGCTACGACGGGATT
B17: AGAUUUA (DNA:RNA)
RNA: B3 RNA with C25A, C27A, A30U, U31A
DNA 1: CAATCTGAATTCCGGTCTCCC
DNA 2: TGGTGGCTACGACGGGATT
B18: CAUUGUC (DNA:RNA)
RNA: B3 RNA with G26A, C27U, U29G, A30U, U31C
DNA 1: CAATCTGAATTCCGGTCTCCC
DNA 2: TGGTGGCTACGACGGGATT
B19: CUAUACA (DNA:RNA)
RNA: B1 RNA with U25C, U27A, A28U, U30C
DNA 1: CAATCTGAATTCCGGTCTCCC
DNA 2: TGGTGGCTACGACGGGATT
B20: AGGCGAC (DNA:RNA)
RNA: B3 RNA with C25A, C27G, U28C, U29G, U31C
DNA 1: CAATCTGAATTCCGGTCTCCC
DNA 2: TGGTGGCTACGACGGGATT
B21: CGUUCAG (DNA:RNA)
RNA: B3 RNA with C27U, U29C, U31G
DNA 1: CAATCTGAATTCCGGTCTCCC
DNA 2: TGGTGGCTACGACGGGATT
B22: CCUUGCA (DNA:RNA)
RNA: B3 RNA with G26C, C27U, U29G, A30C, U31A
DNA 1: CAATCTGAATTCCGGTCTCCC
DNA 2: TGGTGGCTACGACGGGATT
B23: ACCAGGA (DNA:RNA)
RNA: B1 RNA with U25A, U26C, U27C, A29G, U30G
DNA 1: CAATCTGAATTCCGGTCTCCC
DNA 2: TGGTGGCTACGACGGGATT
B24: UACGUUA (DNA:RNA)
RNA: B1 RNA with U26A, U27C, A28G, A29U
DNA 1: CAATCTGAATTCCGGTCTCCC
DNA 2: TGGTGGCTACGACGGGATT
B25: CCAGAGU (DNA:RNA)
RNA: B3 RNA with G26C, C27A, U28G, U29A, A30G
DNA 1: CAATCTGAATTCCGGTCTCCC
DNA 2: TGGTGGCTACGACGGGATT
B26: GGCUCCG (DNA:RNA)
RNA: B3 RNA with C25G, U29C, A30C, U31G
DNA 1: CAATCTGAATTCCGGTCTCCC
DNA 2: TGGTGGCTACGACGGGATT
B27: AGGGCUU (DNA:RNA)
RNA: B3 RNA with C25A, C27G, U28G, U29C, A30U
DNA 1: CAATCTGAATTCCGGTCTCCC
DNA 2: TGGTGGCTACGACGGGATT
B28: AGAAGGC (DNA:RNA)
RNA: B3 RNA with C25A, C27A, U28A, U29G, A30G, U31C
DNA 1: CAATCTGAATTCCGGTCTCCC
DNA 2: TGGTGGCTACGACGGGATT
B29: ACUUUCG (DNA:RNA)
RNA: B3 RNA with C25A, G26C, C27U, A30C, U31G
DNA 1: CAATCTGAATTCCGGTCTCCC
DNA 2: TGGTGGCTACGACGGGATT
B30: UACGAAC (DNA:RNA)
RNA: B3 RNA with C25U, G26A, U28G, U29A, U31C
DNA 1: CAATCTGAATTCCGGTCTCCC
DNA 2: TGGTGGCTACGACGGGATT
B31: AAAACAC (DNA:RNA)
RNA: B3 RNA with C25A, G26A, C27A, U28A, U29C, U31C
DNA 1: CAATCTGAATTCCGGTCTCCC
DNA 2: TGGTGGCTACGACGGGATT

Molecular target: T1, RBFOX1 RRM RbFoxmut (Fox-RRM*)
Test: EMSA; HiTS-Eq, 1 nM pool, 10 min; buffer printed only for the single-RNA assays: 10 mM Tris pH 7.5, 150 mM NaCl, 3.4 mM EDTA, 0.001% NP-40, 30 C
Conditions: tags: His6 N-terminal (pET28a); label: 5' 32P
Procedure, shortened: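 Purified RbFox RRM (wild type or mutant) was equilibrated for 10 min in 50 µL with 1 nM of a 5′-radiolabelled pool of RNA with 7 randomized nucleotides, its flanks annealed to DNA oligonucleotides, across increasing protein concentrations. Free RNA was separated by 8% native PAGE, excised, reverse-transcribed, PCR-barcoded and sequenced on an Illumina HiSeq 2500. Relative association constants came from read-count changes of each variant against the control reaction, normalised to the cognate motif.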

Binder | binding signal
B1 | 0.115 KA relative to UGCAUGU
B2 | 0.107 KA relative to UGCAUGU
B3 | 0.11 KA relative to UGCAUGU
B4 | 0.113 KA relative to UGCAUGU
B5 | 0.0582 KA relative to UGCAUGU
B6 | 0.101 KA relative to UGCAUGU
B7 | 0.118 KA relative to UGCAUGU
B8 | 0.191 KA relative to UGCAUGU
B9 | 0.102 KA relative to UGCAUGU
B10 | 0.343 KA relative to UGCAUGU
B11 | 0.0611 KA relative to UGCAUGU
B12 | 0.0683 KA relative to UGCAUGU
B13 | 0.0636 KA relative to UGCAUGU
B14 | 0.0708 KA relative to UGCAUGU
B15 | 0.0908 KA relative to UGCAUGU
B16 | 0.0919 KA relative to UGCAUGU

Binder | binding signal
B17 | 0.121 KA relative to UGCAUGU
B18 | 0.277 KA relative to UGCAUGU
B19 | 0.0637 KA relative to UGCAUGU
B20 | 0.0736 KA relative to UGCAUGU
B21 | 0.0939 KA relative to UGCAUGU
B22 | 0.238 KA relative to UGCAUGU
B23 | 0.0755 KA relative to UGCAUGU
B24 | 0.131 KA relative to UGCAUGU
B25 | 0.126 KA relative to UGCAUGU
B26 | 0.116 KA relative to UGCAUGU
B27 | 0.0737 KA relative to UGCAUGU
B28 | 0.0762 KA relative to UGCAUGU
B29 | 0.0835 KA relative to UGCAUGU
B30 | 0.0628 KA relative to UGCAUGU
B31 | 0.0821 KA relative to UGCAUGU
